Laboratory results reported in patent US10532065B2, “Bisphosphonic acid derivative and application for same” (NAGASAKI UNIVERSITY, priority 2014, dated 2020).
At least one structure is not confirmed: it was looked up by name or label, or the drawing left a doubt.

Key:
Format in all cases: cell-based
U937 cells = experiment: U937 cell growth inhibition (direct antitumor action, CellTiterGlo); conditions: IC50 POM ester : IC50 acid form (H) of same side chain, listed under the POM ester
Procedure: (§1) The direct antitumor action of bisphosphonic acid POM ester and bisphosphonic acid was studied by comparison using U937.
(§2) The direct antitumor action of various bisphosphonic acid POM esters was studied by comparison using U937 and EJ-1. The measurement was performed according to Experimental Example 2 and Experimental Example 4.

EJ-1 cells = experiment: EJ-1 cell growth inhibition (direct antitumor action, CellTiterGlo); conditions: IC50 POM ester : IC50 acid form (H) of same side chain, listed under the POM ester
Procedure: as §1
(§3) The direct antitumor action of bisphosphonic acid POM ester derivatives and bisphosphonic acids was studied by comparison using EJ-1. It was performed in the same manner as in Experimental Example 1 except that EJ-1 was used as the cell to be used. For recovery of the cells, a conventional EDTA trypsin treatment was performed.
as §3, with “POM esters” for “POM ester derivatives”, “Example 2” for “Example 1”
as §2

EJ-1 cells / γδ T cells = experiment: TNF-α production from γδ T cells stimulated by compound-pretreated EJ-1 cells (indirect antitumor action, ELISA); conditions: TNF-α50 POM ester : acid form (H) of same side chain, listed under the POM ester
Procedure: The indirect antitumor action of bisphosphonic acid POM esters and bisphosphonic acids was studied by comparison using EJ-1. In principle, EJ-1 is treated with a compound, washed, and reacted with γδ T cells, and the cytotoxic ability is studied by comparison, by quantifying TNF-α produced by γδ T cells during cell disordering. TNF-α is generally used as an index of γδ T cell induction ability and/or proliferative capacity, and γδ T cells are considered to be induced and/or proliferated in proportion to the TNF-α amount (Journal of Immunology, 154, 5986-5994 (1995)). Since the produced TNF-α is what is called a tumor necrosis factor, it is considered to have an action to lower proliferation of cancer cells or induce cell death.
Thereto was added a solution (500 μl) of compounds 3, 5, 6, 7, which are bisphosphonic acid POM ester derivatives, obtained by serially diluting 10 mM stock solution 10-fold from 20 μM, or a solution (500 μl) of bisphosphonic acid 10, 12, 13, 14 compound obtained by serially diluting 10-fold from 200 μM, and the cells were suspended well. These conical tubes were stood at 37° C. for 4 hr, and the cells were washed 3 times with 5 ml of culture medium. To these cells was added 500 μl of medium, and the cells were suspended well. […] The cell culture medium was suspended well, and the plate was centrifuged at 1,700 rpm, 4° C. for 2 min and the culture supernatant (150 μl) was taken and placed in another round-bottomed 96 well plate. The plate was frozen at −80° C. overnight, left standing at room temperature for 1 hr, stirred well and 100 μl thereof was subjected to ELISA of TNF-α. The content of TNF-α was calculated from the analytical curve of TNF-α. These were performed in triplicate, and a graph showing bisphosphonic acid POM ester derivative and the corresponding bisphosphonic acid as one pair was plotted. […] The results of bisphosphonic acid POM ester derivative are shown by -●-, and the results of bisphosphonic acid are shown by -◯-.
The indirect antitumor action of bisphosphonic acid POM esters and bisphosphonic acids was quantitatively studied by comparison using EJ-1. […] Thereto was added a solution (500 μl) of a bisphosphonic acid POM ester derivative obtained by serially diluting 10 mM stock solution 10-fold from 20 μM, or a bisphosphonic acid solution (500 μl) serially diluted 10-fold from 200 μM was added, and the cells were suspended well. These conical tubes were stood at 37° C. for 4 hr, and the cells were washed 3 times with 5 ml of culture medium. To these cells was added 500 μl of medium, and the cells were suspended well. […] The cell culture medium was suspended well, and the plate was centrifuged at 1,700 rpm, 4° C. for 2 min and the culture supernatant (150 μl) was taken and placed in another round-bottomed 96 well plate. The plate was frozen at −80° C. overnight, left standing at room temperature for 1 hr, stirred well and 100 μl thereof was subjected to ELISA of TNF-α. The content of TNF-α was calculated from the analytical curve of TNF-α. These were performed in triplicate, and a half of the concentration of compounds 1-7, which are bisphosphonic acid POM ester derivatives, and compounds 8-14, which are bisphosphonic acids, necessary for producing the maximum amount of TNF-α from γδ T cells was calculated as TNF-α50, and summarized in Table 6.
Therefore, the TNF-α50 value of various bisphosphonic acid POM ester derivatives was calculated. […] Thereto was added a solution (500 μl) of compounds 1-7 and 15-39, which are bisphosphonic acid POM ester derivatives, and compound 42, which is other bisphosphonic acid ester derivative, obtained by serially diluting 10 mM stock solution 10-fold from 20 μM, and the cells were suspended well. These conical tubes were stood at 37° C. for 4 hr, and the cells were washed 3 times with 5 ml of culture medium. To these cells was added 500 μl of medium, and the cells were suspended well. […]

| SMILES | Ratio (U937 cells) | Ratio (EJ-1 cells) | Ratio (EJ-1 cells / γδ T cells) |
| --- | --- | --- | --- |
| CN(CC(P(=O)(OCOC(=O)C(C)(C)C)OCOC(=O)C(C)(C)C)P(=O)(OCOC(=O)C(C)(C)C)OCOC(=O)C(C)(C)C)c1ccccn1 [Compound 1, tetrakispivaloyloxymethyl 2-(methylpyridin-2-ylamino)ethylidene-1,1-bisphosphonate] | 1:185 | 1:1.2 | 1:>180 |
| CC(C)(C)C(=O)OCOP(=O)(OCOC(=O)C(C)(C)C)C(CNc1ncccc1Br)P(=O)(OCOC(=O)C(C)(C)C)OCOC(=O)C(C)(C)C [Compound 2, tetrakispivaloyloxymethyl 2-(3-bromopyridin-2-ylamino)ethylidene-1,1-bisphosphonate] | 1:1,618 | 1:422 | 1:>20 |
| Cc1ccc(NCC(P(=O)(OCOC(=O)C(C)(C)C)OCOC(=O)C(C)(C)C)P(=O)(OCOC(=O)C(C)(C)C)OCOC(=O)C(C)(C)C)nc1 [Compound 3, tetrakispivaloyloxymethyl 2-(5-methylpyridin-2-ylamino)ethylidene-1,1-bisphosphonate] | 1:5 | 1:1.5 | 1:100 |
| CC(C)(C)C(=O)OCOP(=O)(OCOC(=O)C(C)(C)C)C(CNc1ccc(Br)cn1)P(=O)(OCOC(=O)C(C)(C)C)OCOC(=O)C(C)(C)C [Compound 4, tetrakispivaloyloxymethyl 2-(5-bromopyridin-2-ylamino)ethylidene-1,1-bisphosphonate] | 1:56 | 1:37 | 1:>140 |
| CC(C)(C)C(=O)OCOP(=O)(OCOC(=O)C(C)(C)C)C(CNc1ccc(F)cn1)P(=O)(OCOC(=O)C(C)(C)C)OCOC(=O)C(C)(C)C [Compound 5, tetrakispivaloyloxymethyl 2-(5-fluoropyridin-2-ylamino)ethylidene-1,1-bisphosphonate] | 1:13 | 1:54 | 1:710 |
| CC(C)(C)C(=O)OCOP(=O)(OCOC(=O)C(C)(C)C)C(CNc1ncccn1)P(=O)(OCOC(=O)C(C)(C)C)OCOC(=O)C(C)(C)C [Compound 6, tetrakispivaloyloxymethyl 2-(pyrimidin-2-ylamino)ethylidene-1,1-bisphosphonate] | 1:63 | 1:256 | 1:600 |
